Data on 28 molecules can be found in PubChem BioAssay AID1224903 (Bradner/Qi Labs at DFCI, 2016).

Some of the results follow. These are further read-outs of the screen, such as a control signal, another cell line or another target. No call is given for them. Compounds called inactive in the main read-out are mostly missing here.

The target of this experiment is Chromobox protein homolog 7 (Homo sapiens) (UniProt O95931). As to the kind of experiment: blockers of CBX7 binding to H3K27me3 peptide – biochemical, AlphaScreen, primary screen (AID 1224903). Particulars: AlphaScreen His6-CBX7 / biotin-H3K27me3 peptide binding; measured here: z-score of CBX7 signal; stronger effect = lower value. In general terms: In Alpha technology, singlet oxygen from a donor bead excites a nearby acceptor bead.
Chain of UniProt O95931 (O95931 whole entry, looked up): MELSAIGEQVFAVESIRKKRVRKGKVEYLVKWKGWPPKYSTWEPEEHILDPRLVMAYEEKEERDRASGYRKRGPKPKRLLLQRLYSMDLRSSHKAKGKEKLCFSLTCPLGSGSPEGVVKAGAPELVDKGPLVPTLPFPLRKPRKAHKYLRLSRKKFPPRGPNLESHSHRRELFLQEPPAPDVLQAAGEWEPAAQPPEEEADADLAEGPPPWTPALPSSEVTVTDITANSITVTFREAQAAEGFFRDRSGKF
`O=C(CN1CCCC1)Nc1c2c(nc3c1CCC3)CCC2`: the z-score is -9.77. Regarding `Cc1ccc(Nc2c(-c3ccc(N4CCOCC4)cc3)nc3sccn23)cc1C`, the z-score was -10.1. As for `COc1ccccc1-c1c(C)nn2c(NCc3ccccn3)cc(C)nc12`, the z-score is -6.59. The value for `Cc1nnc(NC(=O)c2ccc(S(=O)(=O)N3CC(C)CC(C)C3)cc2)o1` (stereo not drawn) was -0.814. In turn, `Oc1c(C(Nc2ccccc2)c2ccccc2)ccc2cccnc12` (stereo not drawn) displayed a z-score of -12.3. `CCN1CCN(CCCNC(=O)COc2ccc3c(c2)C(=O)CC(C)(C)O3)CC1` showed a z-score of -10.8. The value for `COCc1nnc(NC(=O)c2ccc(S(=O)(=O)N3CCCCCC3)cc2)o1` was -1.62. As for `C=CCc1ccccc1OCC(O)CN1CCN(c2ccc(C)cc2)CC1` (stereo not drawn), the z-score was -1.56. For `COc1ccc(CN2C(=O)c3cccnc3C2Nc2ccc(OC)cc2)cc1` (stereo not drawn) the value was -12.6; for `CCc1nnc(NC(=O)c2ncn[nH]2)s1`, -27.9; for `Cc1ccc(NC2c3ncccc3C(=O)N2Cc2ccc(F)cc2)cc1` (stereo not drawn), -7.2. The value for `CC1CCN(Cc2cc(Cl)c(O)c3ncccc23)CC1` was -27.6; that for `CCOc1ccccc1CNC(=O)CCCc1cn(C)c2ccccc12` was -0.616. `O=C(NCCCn1ccnc1)c1ccc(C#Cc2ccccc2)cc1` yielded a z-score of -5.61. For `Cn1c(CNc2ccccc2O)nc2ccccc21` the value was -22.2; for `Cc1ccc2nc(-c3ccccn3)c(Nc3ccc4c(c3)OCCO4)n2c1`, -21.6; for `Oc1cccc(Nc2nc(-c3ccccn3)cs2)c1`, -16.1. For `CCC(C)(C)C1CCc2oc3ccc(NS(=O)(=O)c4cccs4)cc3c2C1` (stereo not drawn) the value was -1.62; for `c1ccc(Oc2ccc(-c3[nH]c(-c4ccccc4)nc3-c3ccccc3)cc2)cc1`, -2.11; for `Cc1ccc(-c2nc(-c3c[nH]c4ccccc34)[nH]c2-c2ccc(C)cc2)cc1`, -0.624. For `CCOC(=O)CCCCC(=O)c1[nH]c(=O)[nH]c1CSc1nnc2c(n1)[nH]c1ccccc12` the value was -0.577; for `COc1ccccc1-c1nnc(NC(=O)c2ccc(S(=O)(=O)N(C)Cc3ccccc3)cc2)o1`, -16.8.

As for `CCCn1cnc2cc(NCc3ccc(Br)cc3)ccc21`, the z-score was -19.4.

In turn, `N#Cc1nc(COc2ccccc2Cl)oc1NCCCn1ccnc1` had a z-score of -43.7. The value for `Cc1c(Cl)cccc1Nc1nc(-c2ccccn2)cs1` was -6.78; that for `Cc1ccc(OCc2nc(C#N)c(N3CCCCCC3)o2)cc1` was -3.76.

As to `O=C1c2cccnc2C(Nc2ccc(Cl)cc2)N1Cc1ccc(F)cc1` (stereo not drawn), the z-score is -8.06. The molecule `CCCN(CCC)S(=O)(=O)c1ccc(C(=O)Nc2nnc(C)o2)cc1` came in with a z-score of -1.22.
